In PubChem BioAssay AID894 (National Center for Advancing Translational Sciences (NCATS), 2007):
Hit rate of the full screen: of about 150,000 compounds, about 6,500 (4.3%) were called active. The shares of active, inactive and inconclusive entries below differ from those in the screen. The call rests on the fitted dose curve; in most records, active means well fitted inhibition curve with a large enough effect (not every such curve was filed as active); inconclusive means small, poorly fitted or top-dose-only effect, or another doubt; inactive means no such curve, though single readings can be large or run the other way. No potency is given beside an inconclusive call; the fits are too rough.

target: 15-hydroxyprostaglandin dehydrogenase [NAD(+)] (Homo sapiens) (UniProt P15428); assay: qHTS Assay for Inhibitors of HPGD (15-Hydroxyprostaglandin Dehydrogenase); conditions: purified HPGD, NADH fluorescence kinetic, PGE2 substrate; activity change, negative = inhibition: active compounds read low
Chain of UniProt P15428 (P15428 whole entry, looked up): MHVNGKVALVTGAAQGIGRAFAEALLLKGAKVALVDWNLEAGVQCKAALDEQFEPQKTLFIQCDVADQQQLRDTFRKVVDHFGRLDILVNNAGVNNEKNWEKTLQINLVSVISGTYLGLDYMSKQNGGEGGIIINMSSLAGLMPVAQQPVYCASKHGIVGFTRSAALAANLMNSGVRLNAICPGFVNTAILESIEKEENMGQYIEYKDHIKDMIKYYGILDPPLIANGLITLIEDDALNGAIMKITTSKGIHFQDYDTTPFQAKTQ
How it was run: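 20 nM HPGD preincubated 15 min at room temperature with compound in 50 mM Tris-HCl pH 8, 0.01% Tween 20. Started with 1 mM NAD+ and 30 uM prostaglandin E2; NADH fluorescence (360/450 nm) read 5 times over 30-s intervals, last minus first.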
On the % scale 0 is the no-effect control and ±100 the full control effect; potency means the concentration at half of the fitted maximal effect; tags describe the fitted curve by direction and shape.

| Structure (SMILES) | Potency | activity change, negative = inhibition |
| --- | --- | --- |
| C/C(N=NC(=[SH+])SCc1ccccc1)=C1\C=CC=CN1.[Cl][Cu] | active: 3.55 µM |  |
| CCN(CC)C[C@@H]1CCCCN1CC(=O)N1c2ccccc2C(=O)Nc2cccnc21 |  | inactive: -1.73% |
| O=c1[nH]c2ccc(S(=O)(=O)N3CCCCC3)cc2[nH]1 |  | inactive: -9.92% |
| COc1ccc(C(=O)N2CCC3(CCN(C(=O)Nc4cccc(F)c4)CC3)CC2)cc1 |  | inactive: -5.88% |
| C/C(Cn1nc([N+](=O)[O-])cc1C)=N\NC(=O)COc1ccc(Cl)cc1Cl |  | inactive: -13.3% |
| C=CCN1CCN(c2nc3ccccc3nc2C#N)CC1 |  | inactive: -5.21% |
| COc1ccc(-c2cc3nc(-c4ccccc4)cc(N4CCC5(CC4)OCCO5)n3n2)cc1 | inconclusive [inhibitor, partial curve] |  |
| CC1(OC(=O)c2ccc(Cl)nc2)C(=O)C=C2C=C(C3CC3)OC=C2C1=O (stereo not given) |  | inactive: -1.7% |
| CNC(=O)c1cc2cc(OC)ccc2oc1=N | inconclusive [inhibitor, partial curve] |  |
| COC(=O)c1cnn2c(C)c(Cc3cccc(F)c3)c(C)nc12 | inconclusive [inhibitor, partial curve] |  |
| CCCCCn1c(SCc2ccncc2)nc2cc(C(=O)NCc3ccco3)ccc2c1=O |  | inactive: -21.5% |
| CCN(CC)S(=O)(=O)c1ccc(N/N=C/c2ccc(OC)c(OC)c2OC)nc1 | inconclusive [inhibitor, partial curve] |  |
| COC(=O)C1(C)Nc2ccccc2C(=O)N1c1ccccc1OC (stereo not given) | inconclusive [inhibitor, partial curve] |  |
| Cc1ccc2[nH]c3c(c2c1)CCC3=O | inconclusive [inhibitor, partial curve] |  |
| O=C(OCC#CCSc1nnc(-c2ccccc2)o1)c1cccs1 | active: 15.8 µM |  |
| Cc1nc(C)c(-c2csc(Nc3cccnc3)n2)s1 | inconclusive [inhibitor, partial curve] |  |
| CC(=O)Nc1ccc(Oc2cc(C#N)c(C#N)cc2N2CCOCC2)cc1 | inconclusive [inhibitor, partial curve, poor fit] |  |
| COC(=O)C1=C(C)NC(C)=C(C(=O)OC)C1c1cc2cc(C)ccc2[nH]c1=O | inconclusive [inhibitor, partial curve] |  |
| Cc1cccc(NCc2cc(Cl)cc(Cl)c2O)n1 | inconclusive [inhibitor, partial curve] |  |
| O=C(O)c1ccccc1NCn1c(=S)sc2ccccc21 | inconclusive [inhibitor, single point] |  |
| CCn1nc2cc(C(=O)NCC34CC5CC(CC(C5)C3)C4)ccc2c1OC | inconclusive [inhibitor, partial curve] |  |
| COCCn1c(=NC(=O)c2ccc(S(=O)(=O)N3CCc4ccccc4C3)cc2)sc2cc(S(N)(=O)=O)ccc21 | inconclusive [inhibitor, partial curve] |  |
| COc1cccc(Nc2nc(NCCO)c3ccccc3n2)c1 |  | inactive: -23.5% |

| Structure (SMILES) | Potency | activity change, negative = inhibition |
| --- | --- | --- |
| COCCNc1nc(C)nc2c1nc(-c1ccccc1)n2C1CCN(Cc2ccccc2)C1 (stereo not given) | inconclusive [inhibitor, partial curve] |  |
| CC1=NN(C(=S)Nc2ccccc2)C(c2ccccc2)C1 (stereo not given) |  | inactive: -3.33% |
| S=c1[nH]nc(-c2ccc(Cl)cc2)n1Cc1ccccc1 | inconclusive [inhibitor, partial curve] |  |
| CC(NC(=O)c1ccc(N(C)C)cc1)C1CC2CCC1C2 (stereo not given) | inconclusive [inhibitor, partial curve] |  |
| Cc1nc(N2CCN(S(=O)(=O)c3ccccc3)CC2)c2cc(-c3ccccc3)sc2n1 | inconclusive [inhibitor, partial curve] |  |
| Cc1cc2cc(CCNS(C)(=O)=O)c(=O)[nH]c2cc1C | inconclusive [inhibitor, partial curve] |  |
| CCn1c2ccccc2c2cc(NC(=O)C(C)Oc3ccccc3)ccc21 (stereo not given) | inconclusive [inhibitor, single point] |  |
| O=C(Nc1ccccc1-c1nnn(CC(=O)N2CCCc3ccccc32)n1)c1ccc(Cl)cc1 | inconclusive [inhibitor, partial curve] |  |
| COC(=O)C1(C)CN(S(=O)(=O)c2ccc(C)cc2)c2cc(OC)ccc2C1=O (stereo not given) | inconclusive [inhibitor, partial curve] |  |
| CCOc1ccc(Nc2ncnc3c2cnn3-c2ccccc2)cc1 |  | inactive: -8.95% |
| CCCCNC(=O)c1cc2c(=O)n3cccc(C)c3nc2n(CCN2CCOCC2)c1=N | inconclusive [inhibitor, partial curve] |  |
| COc1ccccc1C(=O)Oc1ccc(C(C)C)cc1 | inconclusive [inhibitor, partial curve, poor fit] |  |
| CCOC(=O)c1sc(-c2ccc(OC)cc2)cc1N | inconclusive [inhibitor, partial curve] |  |
| O=C(Nc1ccon1)c1cc2c(s1)CCCC2 | active: 28.2 µM |  |
| CCC(=O)OCCNc1cc(SCCC(=O)OC)c2nonc2c1[N+](=O)[O-] | inconclusive [inhibitor, partial curve] |  |
| CC1(C)CC(=O)c2cc(OCC(=O)NCC3CCCO3)ccc2O1 (stereo not given) | inconclusive [inhibitor, partial curve] |  |
| Cc1ccc(S(=O)(=O)N2CCCC2C(=O)O)cc1 (stereo not given) |  | inactive: -11.3% |
| CCOC(=O)c1ccc(CC2S/C(=C(\C#N)C(C)=O)NC2=O)cc1 (stereo not given) | active: 14.1 µM |  |
| O=c1c2cn[nH]c2[nH]c(=S)n1-c1cccc2ccccc12 |  | inactive: -18.4% |
| O=C(/C=C/c1ccccc1)c1ccc(NC2=NCCCS2)cc1 | active: 14.1 µM |  |
| O=c1cc(C(F)(F)F)c2sc(N3CCCCC3)nc2[nH]1 | inconclusive [inhibitor, full curve] |  |
| COc1ccc(-c2cc3nc[nH]c(=O)c3s2)cc1 | inconclusive [inhibitor, partial curve] |  |
